Experimental findings from publication PMC7272351 are described below.

The chains behind the UniProt entries cited, without tags or fusion partners. Where a name states a change or a piece, a line headed by the entry shows the natural chain unless it says otherwise. A line that says so, or that is headed by a name, gives the form on record, which may keep a tag or linker. Residues count along the entry.
GFP-tagged human PRR14 Tantalus domain (455–517), wild type (Q9BWN1, residues 455-517): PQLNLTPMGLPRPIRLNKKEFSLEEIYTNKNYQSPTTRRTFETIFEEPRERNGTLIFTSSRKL
GFP-tagged human PRR14 Tantalus domain (455–517) E500A, E501A (Q9BWN1, form named): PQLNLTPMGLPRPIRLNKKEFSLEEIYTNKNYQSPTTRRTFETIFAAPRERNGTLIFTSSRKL
GFP-tagged human PRR14 Tantalus domain (455–517) F495L (Q9BWN1, form named): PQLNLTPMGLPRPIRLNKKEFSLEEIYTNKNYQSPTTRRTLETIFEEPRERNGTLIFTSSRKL
GFP-tagged human PRR14 Tantalus domain (455–517) N483S, K484R (Q9BWN1, form named): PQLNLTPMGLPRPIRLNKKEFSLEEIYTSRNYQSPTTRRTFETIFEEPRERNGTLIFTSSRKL
UniProt Q15172: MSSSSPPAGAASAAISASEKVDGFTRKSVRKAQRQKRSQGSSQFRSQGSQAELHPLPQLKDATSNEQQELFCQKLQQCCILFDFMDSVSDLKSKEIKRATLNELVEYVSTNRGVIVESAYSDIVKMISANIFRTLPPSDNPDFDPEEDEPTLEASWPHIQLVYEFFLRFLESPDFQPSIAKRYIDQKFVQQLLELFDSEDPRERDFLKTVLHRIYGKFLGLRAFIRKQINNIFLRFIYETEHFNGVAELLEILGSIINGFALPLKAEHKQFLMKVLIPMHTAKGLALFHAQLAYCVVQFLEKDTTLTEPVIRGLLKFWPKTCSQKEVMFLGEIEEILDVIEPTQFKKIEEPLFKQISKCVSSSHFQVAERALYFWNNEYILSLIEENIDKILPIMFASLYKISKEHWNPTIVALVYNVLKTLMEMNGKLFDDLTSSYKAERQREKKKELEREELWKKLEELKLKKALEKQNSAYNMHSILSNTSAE

Test in all cases: co-IP; GFP-Trap magnetic agarose beads (GFP nanobody) added to lysates of HeLa cells co-transfected with GFP-Tantalus (bait) and HA-B56α (prey); lysis in 10 mM Tris-HCl pH 7.5, 150 mM NaCl, 0.5 mM EDTA, 0.5% NP-40; 1 h at 4°C; anti-HA western blot; the paper calls it a pulldown
Background: Immunoblotting shows a protein as a band on a membrane.

Experiment [1] addresses GFP-tagged human PRR14 Tantalus domain (455–517), wild type (human) (UniProt Q9BWN1).
Experiment [2] addresses GFP-tagged human PRR14 Tantalus domain (455–517) E500A, E501A (human) (UniProt Q9BWN1).
The target of experiment [3] is GFP-tagged human PRR14 Tantalus domain (455–517) F495L (human) (UniProt Q9BWN1).
Experiment [4] concerns the target GFP-tagged human PRR14 Tantalus domain (455–517) N483S, K484R (human) (UniProt Q9BWN1).

These are yes or no findings as the source states them, for the method shown. In cells and extracts the contact can be indirect. Some binding calls cover weakened binding; strength is not graded here.

As to “HA-tagged human PP2A B56α G216Q (from UniProt Q15172 1-486)”, the binding result in experiment [1] is listed as “binds”.
“HA-tagged human PP2A B56α regulatory subunit, wild type (from UniProt Q15172 1-486)”: the binding entry in experiment [2] is listed as “no binding”; in experiment [1] it was “binds”; in experiment [3] it was “binds”; in experiment [4], “binds”.
